Reference: the supplement of paper PMC4166925
± gives the standard deviation of the averaged measurements. Whole data set: some 33,000 sequences, median “E-score (dimensionless, -0.5 to 0.5)” near -0.046, cut for the highest 2% near 0.36. This is one part of the list.

test system: T1, SpTbr T-box DNA-binding domain (GST fusion); assay: PBM E-score of 8-mer (E-score (dimensionless, -0.5 to 0.5)); Tbr is Tbrain of the sea star Patiria miniata (Pm) or the sea urchin Strongylocentrotus purpuratus (Sp); higher = stronger binding preference; most listed sequences are background and not binding sites; details: the construct has about 5 more residues each side
T1 sequence: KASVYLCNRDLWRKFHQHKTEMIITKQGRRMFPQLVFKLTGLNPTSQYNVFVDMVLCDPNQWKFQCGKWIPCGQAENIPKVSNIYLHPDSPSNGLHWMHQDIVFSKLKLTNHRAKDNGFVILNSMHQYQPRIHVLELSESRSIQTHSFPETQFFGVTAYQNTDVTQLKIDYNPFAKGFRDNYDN
In short: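 Universal Agilent oligonucleotide arrays, made double-stranded by primer extension, were incubated with 200 nM GST-fused Tbr T-box DNA-binding domain in PBS (pH 7.5). The protein was expressed in BL21 E. coli at 20 °C and purified by glutathione affinity chromatography. After scanning and quantification, the Universal PBM Analysis Suite assigned an enrichment E-score to each ungapped 8-mer, averaged over duplicate arrays.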

Compared with ACCCGAGC, TGTATCAA is lower in “PBM E-score of 8-mer” value: 0.0518 ± 0.058 for the first, -0.0245 ± 0.011 for the second.

AGTGCTGG and GCCAGACA are within error of each other in “PBM E-score of 8-mer” value: -0.102 ± 0.013 for the first, -0.0989 ± 0.049 for the second.

Going from GGTGTCAC to CTACTGAC, the “PBM E-score of 8-mer” value falls from 0.475 ± 0.0052 to 0.0451 ± 0.03.

Compared with ATACCGGG, ACAAACTG is higher in “PBM E-score of 8-mer” value: -0.103 ± 0.018 for the first, 0.057 ± 0.034 for the second.

Going from AGGCGAGG to CGGGAAGA, the “PBM E-score of 8-mer” value falls from 0.193 ± 0.0034 to -0.0538 ± 0.039.

Going from ATGTTATC to AGGCAAAT, the “PBM E-score of 8-mer” value falls from 0.149 ± 0.0061 to -0.365 ± 0.017.

First: AAAAACAG
Second: TCGACCCA
The “PBM E-score of 8-mer” value of the first is lower: -0.162 ± 0.053 for the first, -0.015 ± 0.054 for the second.

ATGCATGC and AACGGAAC are within error of each other in “PBM E-score of 8-mer” value: -0.193 ± 0.14 for the first, -0.0893 ± 0.033 for the second.

Going from AGCAATAA to GACTTGCA, the “PBM E-score of 8-mer” value rises from -0.179 ± 0.038 to 0.198 ± 0.0068.

AGATCGCT and ATTCAAAT are within error of each other in “PBM E-score of 8-mer” value: -0.05065 ± 0.00033 for the first, -0.0886 ± 0.04 for the second.

First: CTCGCTAA
Second: AGTTGTAT
The “PBM E-score of 8-mer” value of the first is higher: 0.232 ± 0.043 for the first, -0.0278 ± 0.013 for the second.

Compared with ATTACGGG, GAGCGTTA is higher in “PBM E-score of 8-mer” value: -0.168 ± 0.046 for the first, 0.1593 ± 0.0015 for the second.

Going from ATTGGCAC to GATACGGA, the “PBM E-score of 8-mer” value falls from 0.322 ± 0.024 to 0.0503 ± 0.043.

First: CTACGGAC
Second: TAAGATCA
The “PBM E-score of 8-mer” value of the first is lower: -0.231 ± 0.045 for the first, -0.1842 ± 0.0016 for the second.

GCAAGCCA and GAATATGC are within error of each other in “PBM E-score of 8-mer” value: -0.168 ± 0.056 for the first, -0.0698 ± 0.059 for the second.

First: AGACACCA
Second: ACCCCGCA
The “PBM E-score of 8-mer” value of the first is higher: 0.251 ± 0.032 for the first, 0.106 ± 0.051 for the second.

First: CCTGTTGA
Second: AGAGTACA
The “PBM E-score of 8-mer” value of the first is higher: 0.116 ± 0.0097 for the first, -0.262 ± 0.074 for the second.

Compared with CCCCACTC, AGCTGGCG is higher in “PBM E-score of 8-mer” value: -0.0512 ± 0.064 for the first, 0.0986 ± 0.012 for the second.

ACCTGCTC and CATGTAAC are within error of each other in “PBM E-score of 8-mer” value: -0.0268 ± 0.017 for the first, -0.0676 ± 0.027 for the second.

Going from TAGAGTGA to AGACTAAT, the “PBM E-score of 8-mer” value falls from 0.162 ± 0.024 to -0.2373 ± 0.00068.

Compared with ACCAGATA, CACCAATA is higher in “PBM E-score of 8-mer” value: -0.0597 ± 0.012 for the first, 0.197 ± 0.0024 for the second.

Going from CGCACGTC to GAGCCGTA, the “PBM E-score of 8-mer” value falls from 0.331 ± 0.013 to -0.122 ± 0.023.

First: GCAATTCA
Second: CAAAGGAA
The “PBM E-score of 8-mer” value of the first is higher: 0.089 ± 0.076 for the first, -0.118 ± 0.043 for the second.

CATTTGGG and AAGTCTAT are within error of each other in “PBM E-score of 8-mer” value: -0.261 ± 0.0028 for the first, -0.285 ± 0.042 for the second.

Going from CGCTATTA to AGGTATCG, the “PBM E-score of 8-mer” value falls from 0.155 ± 0.013 to 0.0459 ± 0.013.

First: CTGGGGTC
Second: AAGAGGTA
The “PBM E-score of 8-mer” value of the first is higher: -0.162 ± 0.016 for the first, -0.272 ± 0.035 for the second.

GACATCTC and CGTTGTAG are within error of each other in “PBM E-score of 8-mer” value: -0.107 ± 0.0082 for the first, -0.0713 ± 0.056 for the second.

AACGCTTA and TATGCGAA are within error of each other in “PBM E-score of 8-mer” value: 0.144 ± 0.038 for the first, 0.131 ± 0.068 for the second.

Compared with CTTAGGCA, ACCGTCAC is higher in “PBM E-score of 8-mer” value: -0.0896 ± 0.013 for the first, 0.272 ± 0.034 for the second.

Compared with CTTGGCTA, CCACCCTC is higher in “PBM E-score of 8-mer” value: -0.124 ± 0.031 for the first, 0.0803 ± 0.068 for the second.

Compared with CCCAGGAA, ATGCCGAA is lower in “PBM E-score of 8-mer” value: -0.193 ± 0.029 for the first, -0.2586 ± 0.0025 for the second.

First: GAAGACGA
Second: ACGTTGCA
The “PBM E-score of 8-mer” value of the first is lower: -0.195 ± 0.06 for the first, -0.0846 ± 0.046 for the second.

ATTCGAAT and GACCCCGC are within error of each other in “PBM E-score of 8-mer” value: -0.199 ± 0.027 for the first, -0.245 ± 0.053 for the second.

ACTATTTG and AGTGGACG are within error of each other in “PBM E-score of 8-mer” value: -0.081 ± 0.045 for the first, -0.105 ± 0.019 for the second.

Compared with AACCTGTA, GTAACTAC is higher in “PBM E-score of 8-mer” value: -0.209 ± 0.018 for the first, -0.0297 ± 0.026 for the second.

AAATCTCT and CGACAGAC are within error of each other in “PBM E-score of 8-mer” value: 0.0717 ± 0.12 for the first, 0.171 ± 0.012 for the second.

CGGAGGCA and CGAAGCCA are within error of each other in “PBM E-score of 8-mer” value: -0.217 ± 0.0037 for the first, -0.144 ± 0.14 for the second.

Going from AGGTACAA to ATTCCGAC, the “PBM E-score of 8-mer” value rises from -0.136 ± 0.019 to -0.0322 ± 0.021.

Going from AACCACAA to GCGCCTTA, the “PBM E-score of 8-mer” value rises from 0.00265 ± 0.013 to 0.295 ± 0.0093.

Compared with AGCAATTA, AACTGAGG is higher in “PBM E-score of 8-mer” value: -0.228 ± 0.029 for the first, 0.0486 ± 0.026 for the second.

GGTGAACA and AATGACTG are within error of each other in “PBM E-score of 8-mer” value: -0.0711 ± 0.04 for the first, -0.144 ± 0.088 for the second.

ACGTTCCA and ACGCAATC are within error of each other in “PBM E-score of 8-mer” value: -0.0981 ± 0.02 for the first, -0.0853 ± 0.12 for the second.

Compared with CCTGGACG, AACTAGGT is lower in “PBM E-score of 8-mer” value: 0.024 ± 0.021 for the first, -0.0891 ± 0.0078 for the second.

Going from CTATCAGC to CCATTGAA, the “PBM E-score of 8-mer” value falls from 0.0496 ± 0.084 to -0.132 ± 0.0095.

Compared with GGATCGTA, GTCGGCTA is higher in “PBM E-score of 8-mer” value: -0.205 ± 0.042 for the first, -0.102 ± 0.029 for the second.

CTAACCCC and GAGGGATA are within error of each other in “PBM E-score of 8-mer” value: -0.0153 ± 0.06 for the first, -0.142 ± 0.083 for the second.

Compared with ATTACGTG, CGCTTACG is higher in “PBM E-score of 8-mer” value: -0.0763 ± 0.018 for the first, 0.1618 ± 0.0016 for the second.

Compared with GGATCTAA, ACACTCCA is higher in “PBM E-score of 8-mer” value: -0.135 ± 0.14 for the first, 0.29 ± 0.007 for the second.

Going from CCAAGCAG to AGGCGTGG, the “PBM E-score of 8-mer” value rises from -0.24466 ± 0.00023 to 0.321 ± 0.044.

Going from AACCAGTC to AATCTGTG, the “PBM E-score of 8-mer” value rises from -0.176 ± 0.021 to 0.132 ± 0.022.

First: AACTAGCG
Second: CTCATGAC
The “PBM E-score of 8-mer” value of the first is lower: -0.202 ± 0.03 for the first, -0.0676 ± 0.011 for the second.

AGACGGCG and AGTCTTTA are within error of each other in “PBM E-score of 8-mer” value: -0.0973 ± 0.026 for the first, -0.184 ± 0.076 for the second.

Going from AGTATCAT to CTCGCGAC, the “PBM E-score of 8-mer” value rises from -0.27 ± 0.032 to 0.311 ± 0.025.

Going from CCAAGACA to TACGGGCA, the “PBM E-score of 8-mer” value falls from -0.0435 ± 0.011 to -0.0818 ± 0.02.

Going from ATAGATAG to ACGCACAT, the “PBM E-score of 8-mer” value rises from -0.136 ± 0.014 to 0.152 ± 0.038.
